# Assay results: the supplement of paper PMC8728848
# The other results are listed elsewhere or left out.
# Columns and labels:
# Assay in all cases: glycan array binding signal (z-score within array); higher = stronger binding
# Conditions in all cases: glycan notation: IUPAC condensed, linker removed
# [1] = target: Gal(b1-4)GlcNAc(b1-2)Man(a1-6)[Man(a1-3)]Man(b1-4)GlcNAc(b1-4)GlcNAc
# Summary of the method: (§1)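 Negative Z-scores can be read as non-binding. The Z-score is calculated within each array and then averaged across arrays of one protein sequence at different concentrations or buffers and across linkers. Arrays, 3228 in all, were curated from the Consortium for Functional Glycomics database and kept only where the protein sequence was available.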
# [2] = target: Gal(b1-4)GlcNAc(b1-2)[Gal(b1-4)GlcNAc(b1-4)]Man(a1-3)[Gal(b1-4)GlcNAc(b1-2)Man(a1-6)]Man(b1-4)GlcNAc(b1-4)GlcNAc
# Summary of the method: as §1
# [3] = target: Gal(b1-4)GlcNAc(b1-2)[Gal(b1-4)GlcNAc(b1-4)]Man(a1-3)[Gal(b1-4)GlcNAc(b1-2)[Gal(b1-4)GlcNAc(b1-6)]Man(a1-6)]Man(b1-4)GlcNAc(b1-4)GlcNAc
# Summary of the method: as §1
# [4] = target: Gal(b1-4)GlcNAc(b1-2)[Gal(b1-4)GlcNAc(b1-4)]Man(a1-3)[GlcNAc(b1-4)][Gal(b1-4)GlcNAc(b1-2)Man(a1-6)]Man(b1-4)GlcNAc(b1-4)GlcNAc
# Summary of the method: as §1
# [5] = target: Gal(b1-4)GlcNAc(b1-2)[Gal(b1-4)GlcNAc(b1-4)]Man(a1-3)[GlcNAc(b1-4)][Gal(b1-4)GlcNAc(b1-2)[Gal(b1-4)GlcNAc(b1-6)]Man(a1-6)]Man(b1-4)GlcNAc(b1-4)GlcNAc
# Summary of the method: as §1
# [6] = target: Gal(b1-4)GlcNAc(b1-2)[Gal(b1-4)GlcNAc(b1-6)]Man(a1-6)[Gal(b1-4)GlcNAc(b1-2)Man(a1-3)]Man(b1-4)GlcNAc(b1-4)GlcNAc
# Summary of the method: as §1
# [7] = target: Gal(b1-4)GlcNAc(b1-2)[Gal(b1-4)GlcNAc(b1-6)]Man(a1-6)[Gal(b1-4)GlcNAc(b1-2)Man(a1-3)]Man(b1-4)GlcNAc(b1-4)[Fuc(a1-6)]GlcNAc
# Summary of the method: as §1
# [8] = target: Gal(b1-4)GlcNAc(b1-2)[Gal(b1-4)GlcNAc(b1-6)]Man(a1-6)[GlcNAc(b1-4)][Gal(b1-4)GlcNAc(b1-2)Man(a1-3)]Man(b1-4)GlcNAc(b1-4)GlcNAc
# Summary of the method: as §1
# [9] = target: Gal(b1-4)GlcNAc(b1-2)[Gal(b1-4)GlcNAc(b1-6)]Man(a1-6)[GlcNAc(b1-4)][Gal(b1-4)GlcNAc(b1-2)[Gal(b1-4)GlcNAc(b1-4)]Man(a1-3)]Man(b1-4)GlcNAc(b1-4)[Fuc(a1-6)]GlcNAc
# Summary of the method: as §1
# [10] = target: Gal(b1-4)GlcNAc(b1-3)Gal(b1-3)GalNAc
# Summary of the method: as §1
# [11] = target: Gal(b1-4)GlcNAc(b1-3)Gal(b1-3)GlcNAc
# Summary of the method: as §1
# [12] = target: Gal(b1-4)GlcNAc(b1-3)Gal(b1-4)Glc
# Summary of the method: as §1
# [13] = target: Gal(b1-4)GlcNAc(b1-3)Gal(b1-4)GlcNAc
# Summary of the method: as §1
# [14] = target: Gal(b1-4)GlcNAc(b1-3)Gal(b1-4)GlcNAc(b1-2)Man(a1-3)[Gal(b1-4)GlcNAc(b1-3)Gal(b1-4)GlcNAc(b1-2)Man(a1-6)]Man(b1-4)GlcNAc(b1-4)GlcNAc
# Summary of the method: as §1
# [15] = target: Gal(b1-4)GlcNAc(b1-3)Gal(b1-4)GlcNAc(b1-2)Man(a1-3)[Gal(b1-4)GlcNAc(b1-3)Gal(b1-4)GlcNAc(b1-2)Man(a1-6)]Man(b1-4)GlcNAc(b1-4)[Fuc(a1-6)]GlcNAc
# Summary of the method: as §1
# [16] = target: Gal(b1-4)GlcNAc(b1-3)Gal(b1-4)GlcNAc(b1-2)[Gal(b1-4)GlcNAc(b1-3)Gal(b1-4)GlcNAc(b1-6)]Man(a1-6)[Gal(b1-4)GlcNAc(b1-3)Gal(b1-4)GlcNAc(b1-2)Man(a1-3)]Man(b1-4)GlcNAc(b1-4)GlcNAc
# Summary of the method: as §1
# [17] = target: Gal(b1-4)GlcNAc(b1-3)Gal(b1-4)GlcNAc(b1-2)[Gal(b1-4)GlcNAc(b1-3)Gal(b1-4)GlcNAc(b1-6)]Man(a1-6)[Gal(b1-4)GlcNAc(b1-3)Gal(b1-4)GlcNAc(b1-2)Man(a1-3)]Man(b1-4)GlcNAc(b1-4)[Fuc(a1-6)]GlcNAc
# Summary of the method: as §1
# [18] = target: Gal(b1-4)GlcNAc(b1-3)Gal(b1-4)GlcNAc(b1-3)Gal(b1-4)GlcNAc
# Summary of the method: as §1
binder,measurement,setting,value
Cohesin-marm-DC-ASGPR (protein) LDITSHHHHHHDDLDAVRIKVDTVNAKPGDTVRIPVRFSGIPSKGIANCDFVYSYDPNVLEIIEIEPGDIIVDPNPDKSFDTAVYPDRKIIVFLFAEDSGTGAYAITKDGVFATIVAKVKEGAPNGLSVIKFVEVGGFANNDLVEQKTQFFDGGVNVGDTTEPATPTTPVTTPTTTDDLDAASSKFQRDLVTLRTDFSNFTSNTLAEIQALTSQGSSLQETIASLKAEVEGHKQELQAGASELQEHNKQKAHLGRCPHTCVCPSSFVCVPVHSEILLRVQQLVQDLNKLSCQVAILKNNATTERTCCPINWVEHQGSCYWFSRSGKTWPEAERYCQLENTHLVVINSREEQNFVQAHLGSAYTWMGLSDPEGVWKWVDGTDYSSGFQNWKPGQPDDWQGHGLGGGEDCAHFHPDGRWNDDVCQRSYHWVCEAGLTQASQDSHAS,glycan array binding signal (z-score),[1],-0.309
same,glycan array binding signal (z-score),[2],-0.306
same,glycan array binding signal (z-score),[3],-0.31
same,glycan array binding signal (z-score),[4],-0.275
same,glycan array binding signal (z-score),[5],-0.268
same,glycan array binding signal (z-score),[6],-0.241
same,glycan array binding signal (z-score),[7],-0.261
same,glycan array binding signal (z-score),[8],-0.307
same,glycan array binding signal (z-score),[9],-0.282
same,glycan array binding signal (z-score),[10],-0.291
same,glycan array binding signal (z-score),[11],-0.307
same,glycan array binding signal (z-score),[12],-0.297
same,glycan array binding signal (z-score),[13],-0.291
same,glycan array binding signal (z-score),[14],-0.175
same,glycan array binding signal (z-score),[15],-0.257
same,glycan array binding signal (z-score),[16],0.022
same,glycan array binding signal (z-score),[17],-0.249
same,glycan array binding signal (z-score),[18],-0.304
